# Laboratory results reported in PubChem BioAssay AID1240 (Sanford-Burnham Center for Chemical Genomics, 2008).
# In all, about 50,000 compounds went through this assay and about 800 (1.6%) showed an effect of 50% or more. Some of the results follow.
# Target: Bcl-2-like protein 10 (Homo sapiens) (UniProt Q9HD36)
# Test: TR3 peptide-Bcl-B binding displacers, biochemical primary FP assay, phenotype converters (AID 1240);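 also: 0% = Bcl-B with tracer peptide and DMSO and 100% = tracer peptide lacking Bcl-B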
# Settings: GST-Bcl-B / FITC-TR3 peptide fluorescence polarization; stronger effect = higher value; compound at 3.75 mg/L
# Sequence of UniProt Q9HD36 (Q9HD36 whole entry, looked up): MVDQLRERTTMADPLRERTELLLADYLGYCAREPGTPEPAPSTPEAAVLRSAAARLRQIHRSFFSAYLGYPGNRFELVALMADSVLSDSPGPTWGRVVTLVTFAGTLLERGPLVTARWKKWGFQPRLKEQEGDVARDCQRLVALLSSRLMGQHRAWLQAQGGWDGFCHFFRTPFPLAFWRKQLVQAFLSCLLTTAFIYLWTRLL
row,SMILES,displacement [%]
1,COC(=O)c1ccc(C(=O)OC)c(NC(=O)/C=C/c2ccco2)c1,63.5
2,O=C1CSC(=S)N1N1C(=O)C2C3C=CC(C3)C2C1=O (stereo not given),-0.8
3,O=C1C2=C(Nc3ccccc3SC2c2ccco2)c2ccccc21 (stereo not given),1.3
4,CN1CCc2c(sc(N)c2C(=O)OC(C)(C)C)C1,0.1
5,O=C(Nc1ccc(S(=O)(=O)Nc2ncccn2)cc1)c1cc([N+](=O)[O-])ccc1Cl,-0.7
6,CCOC(=O)c1ccc(NC(=O)c2ccc(OCC)c(Cl)c2)cc1,-7.9
7,CCOC(=O)c1c(-c2ccc(C)cc2)csc1NC(=S)NC(C)=O,1.4
8,O=C(O)C1NCCc2ccccc21 (stereo not given),-14.6
9,CC(C)OC(=O)c1c(-c2ccc(Cl)cc2Cl)csc1NC(=O)C1C2CCC(C2)C1C(=O)O (stereo not given),-0.4
10,Cc1cc(F)c(F)cc1C(=O)N1CCCC1,0
11,Oc1ccc(/C=N/Nc2nc(N3CCCC3)nc(N3CCCC3)n2)cc1O,3.8
12,C=CCN1C(=O)/C(=C\c2cc(Cl)cc(Br)c2O)SC1=S,13.1
13,CC(=O)Nc1ccc(Nc2c([N+](=O)[O-])c(=O)n(C)c3ccccc23)cc1,-0.8
14,CCCCNCCCCCOc1cccc(C)c1C,7.1
15,CC1=C(C(=O)Nc2ccccc2)C(c2cccs2)C(C#N)=C(SCC(=O)c2ccccc2)N1 (stereo not given),4.2
16,N/C(=N\OC(=O)c1ccccc1I)c1ccc(Cl)cc1,2.2
17,C=CCN(c1ccc(C(=O)O)cc1)S(=O)(=O)/C=C/c1ccccc1,-15
18,O=C(O)/C=C/C(=O)Nc1ccccc1-c1ccccc1,-5.3
19,CCOC(=O)c1ccc(N=Cc2c(O)n(C)c(=O)[nH]c2=O)cc1,16.2
20,CC(=O)Nc1ccc(S(=O)(=O)Nc2ccc(N(C)C(C)=O)cc2)cc1,-10.1
21,Cc1nc2ccccc2c(=O)n1/N=C/c1c(O)ccc2ccccc12,9
22,CC(NC=O)c1ccc(Br)cc1 (stereo not given),5.3
23,COc1ccc(Br)cc1CN1CCN(C2CCCC2)CC1,4.3
24,COc1cccc2c1CC/C(=C\c1cccc(I)c1)C2=O,13.7
25,O=C(NC(NC(=S)Nc1ccc(F)cc1)C(Cl)(Cl)Cl)c1ccc(F)cc1 (stereo not given),10.3
26,Cc1cc(C)c2nc3s/c(=C\c4cccc(Br)c4)c(=O)n3c2c1,3
27,O=Cc1ccc(-c2ccc(F)cc2F)o1,-1.5
28,O=C(NN=C(/C=C/c1ccccc1)/C=C/c1ccccc1)c1cccnc1,-5.3

row,SMILES,displacement [%]
1,Cc1onc(-c2ccccc2)c1C(=O)N1CCc2ccccc21,-5.4
2,CCCC(=O)Nc1ccc(NC(=O)c2cc(Br)ccc2I)cc1,0.9
3,COc1cc(NC(=O)c2c(-c3ccccc3Cl)noc2C)c(OC)cc1Cl,6.9
4,Nn1c(-c2ccco2)nc2ccccc2c1=O,2.4
5,COc1ccc(N(CC(=O)Nc2ccccc2F)S(=O)(=O)c2ccccc2[N+](=O)[O-])c(OC)c1,-17.5
6,O=C(c1cnn2c(C(F)(F)F)cc(-c3cccs3)nc12)N1CCOCC1,-1
7,O=C1CCC(=O)N1c1cccc2c(N3C(=O)CCC3=O)cccc12,-0.3
8,Cc1c(NC(=O)CCN2C(=O)S/C(=C\c3ccccc3)C2=O)c(=O)n(-c2ccccc2)n1C,1.1
9,COc1cc(C=Nc2ccc(Cl)c([N+](=O)[O-])c2)ccc1OC(C)=O,4.8
10,Cc1ccc(N2C(=O)NC(=O)/C(=C\c3ccc(N4CCCCC4)o3)C2=O)cc1,-139
11,COc1ccccc1C1CN(c2ccccc2)N=C1c1cccs1 (stereo not given),-5.4
12,O=C(CSc1ncn[nH]1)Nc1ccc(F)cc1,-7
13,CCOC(=O)C1(C)C=C(Nc2cccc([N+](=O)[O-])c2)C(=O)N1c1ccccc1 (stereo not given),3.6
14,COc1cc(NC(=O)c2cccc(C)c2)c(C(=O)O)cc1OC,-2.1
15,O=C1c2ccccc2NC(c2ccc(O)cc2)N1c1ccc(Cl)cc1 (stereo not given),17.4
16,O=[N+]([O-])c1cccc(N/C(=N/S(=O)(=O)c2ccc(Cl)cc2)c2ccccc2)c1,13.2
17,Cc1c(OCC(=O)c2ccc(Cl)cc2)ccc2c3c(c(=O)oc12)CCC3,10.5
18,CCOC(=O)Cc1nnc(Nc2cccc(C)c2)c2ccccc12,24.4
19,O=[N+]([O-])c1ccc(F)c(NS(=O)(=O)c2ccccc2)c1,7.5
20,O=C(CC(c1ccccc1)c1ccccc1)Nc1cccnc1,-3.3
21,Cc1ccc(C(=O)Nc2nc(-c3ccc4c(c3)Cc3ccccc3-4)cs2)cc1,13.8
22,O=S(=O)(NCC1CCCO1)c1ccc(Br)c2ccccc12 (stereo not given),-1.3
23,CCOc1ccc(C(=O)Nc2ccc(-c3cc4ccccc4oc3=O)cc2)cc1,17.6
24,Cc1ccc(NC(=O)CCNS(=O)(=O)c2ccc(C)cc2)cc1,12.9
25,COc1ccc(-n2c(SCC(=O)Nc3ccccc3C)nc(O)cc2=O)cc1,-12.6
26,C=CCOC(=O)C1=C(C)NC(C)=C(C(=O)OCC=C)C1c1ccc(N(C)C)cc1,15.9
27,CC(=O)c1cccc(NC(=O)c2ccc(C)c(C)c2)c1,1.4
